# Assay results as given in the supplement of paper PMC8728848.
# Some of the results follow.
# B1: GNL (Galanthus nivalis) (protein)
# chain: MGHHHHHHHHYGTLENGHWLMVGMSIFSKDRTVELRMQDDGKLAIYYNDHCAWQSTAQQVNNAKGAVMQGDGNFCIYDKNGKATWHTNTAAPSGDSHTFVSVQDDGNLVLYKNNGATPIWSSKSNK
# How the values were obtained:
# Experiment in all cases: glycan array binding signal (z-score within array); higher = stronger binding
# Details in all cases: glycan notation: IUPAC condensed, linker removed
# Gal(b1-2)Gal = target: Gal(b1-2)Gal
# Procedure, shortened: (§1)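 Arrays were curated from the Consortium for Functional Glycomics database, 3228 in total, and kept only where the protein sequence was available. Binding is expressed as a within-array Z-score. This score was averaged across arrays of the same protein sequence at different concentrations or buffers and across linkers, and negative values can be read as non-binding.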
# Gal(b1-3)Gal = target: Gal(b1-3)Gal
# Procedure, shortened: as §1
# Gal(b1-3)Gal(b1-4)GlcNAc = target: Gal(b1-3)Gal(b1-4)GlcNAc
# Procedure, shortened: as §1
# Gal(b1-3)GalNAc = target: Gal(b1-3)GalNAc
# Procedure, shortened: as §1
# [1] = target: Gal(b1-3)GalNAc(a1-3)[Fuc(a1-2)]Gal(b1-4)Glc
# Procedure, shortened: as §1
# [2] = target: Gal(b1-3)GalNAc(a1-3)[Fuc(a1-2)]Gal(b1-4)GlcNAc
# Procedure, shortened: as §1
# Gal(b1-3)GalNAc(b1-3)Gal = target: Gal(b1-3)GalNAc(b1-3)Gal
# Procedure, shortened: as §1
# [3] = target: Gal(b1-3)GalNAc(b1-3)Gal(a1-4)Gal(b1-4)Glc
# Procedure, shortened: as §1
# [4] = target: Gal(b1-3)GalNAc(b1-4)Gal(b1-4)Glc
# Procedure, shortened: as §1
# [5] = target: Gal(b1-3)GalNAc(b1-4)[Neu5Ac(a2-3)]Gal(b1-4)Glc
# Procedure, shortened: as §1
# Gal(b1-3)GlcNAc = target: Gal(b1-3)GlcNAc
# Procedure, shortened: as §1
# [6] = target: Gal(b1-3)GlcNAc(a1-3)Gal(b1-4)GlcNAc
# Procedure, shortened: as §1
# [7] = target: Gal(b1-3)GlcNAc(a1-6)Gal(b1-4)GlcNAc
# Procedure, shortened: as §1
# Gal(b1-3)GlcNAc(b1-2)Man = target: Gal(b1-3)GlcNAc(b1-2)Man
# Procedure, shortened: as §1
# [8] = target: Gal(b1-3)GlcNAc(b1-2)Man(a1-3)[Gal(b1-3)GlcNAc(b1-2)Man(a1-6)]Man(b1-4)GlcNAc(b1-4)GlcNAc
# Procedure, shortened: as §1
# [9] = target: Gal(b1-3)GlcNAc(b1-2)Man(a1-3)[Gal(b1-3)GlcNAc(b1-2)Man(a1-6)]Man(b1-4)GlcNAc(b1-4)[Fuc(a1-6)]GlcNAc
# Procedure, shortened: as §1
# [10] = target: Gal(b1-3)GlcNAc(b1-2)Man(a1-3)[GlcNAc(b1-4)][Gal(b1-3)GlcNAc(b1-2)Man(a1-6)]Man(b1-4)GlcNAc(b1-4)GlcNAc
# Procedure, shortened: as §1
# [11] = target: Gal(b1-3)GlcNAc(b1-2)[Gal(b1-3)GlcNAc(b1-6)]Man(a1-6)[Gal(b1-3)GlcNAc(b1-2)Man(a1-3)]Man(b1-4)GlcNAc(b1-4)GlcNAc
# Procedure, shortened: as §1
# [12] = target: Gal(b1-3)GlcNAc(b1-3)Gal(b1-3)GlcNAc
# Procedure, shortened: as §1
# [13] = target: Gal(b1-3)GlcNAc(b1-3)Gal(b1-4)Glc
# Procedure, shortened: as §1
# [14] = target: Gal(b1-3)GlcNAc(b1-3)Gal(b1-4)GlcNAc
# Procedure, shortened: as §1
# [15] = target: Gal(b1-3)GlcNAc(b1-3)Gal(b1-4)GlcNAc(b1-2)Man(a1-3)[Gal(b1-3)GlcNAc(b1-3)Gal(b1-4)GlcNAc(b1-2)Man(a1-6)]Man(b1-4)GlcNAc(b1-4)GlcNAc
# Procedure, shortened: as §1
# [16] = target: Gal(b1-3)GlcNAc(b1-3)Gal(b1-4)GlcNAc(b1-2)[Gal(b1-3)GlcNAc(b1-3)Gal(b1-4)GlcNAc(b1-6)]Man(a1-6)[Gal(b1-3)GlcNAc(b1-3)Gal(b1-4)GlcNAc(b1-2)Man(a1-3)]Man(b1-4)GlcNAc(b1-4)[Fuc(a1-6)]GlcNAc
# Procedure, shortened: as §1
# [17] = target: Gal(b1-3)GlcNAc(b1-3)Gal(b1-4)GlcNAc(b1-3)Gal(b1-4)GlcNAc(b1-2)[Gal(b1-3)GlcNAc(b1-3)Gal(b1-4)GlcNAc(b1-3)Gal(b1-4)GlcNAc(b1-6)]Man(a1-6)[Gal(b1-3)GlcNAc(b1-3)Gal(b1-4)GlcNAc(b1-3)Gal(b1-4)GlcNAc(b1-2)Man(a1-3)]Man(b1-4)GlcNAc(b1-4)[Fuc(a1-6)]GlcNAc
# Procedure, shortened: as §1
# [18] = target: Gal(b1-3)GlcNAc(b1-3)Gal(b1-4)GlcNAc(b1-6)[Gal(b1-3)GlcNAc(b1-3)]Gal(b1-4)Glc
# Procedure, shortened: as §1
# [19] = target: Gal(b1-3)GlcNAc(b1-3)Gal(b1-4)[Fuc(a1-3)]GlcNAc
# Procedure, shortened: as §1
# [20] = target: Gal(b1-3)GlcNAc(b1-3)Gal(b1-4)[Fuc(a1-3)]GlcNAc(b1-6)[Gal(b1-3)GlcNAc(b1-3)]Gal(b1-4)Glc
# Procedure, shortened: as §1
# [21] = target: Gal(b1-3)GlcNAc(b1-3)GalNAc
# Procedure, shortened: as §1
# [22] = target: Gal(b1-3)GlcNAc(b1-6)Gal(b1-4)GlcNAc
# Procedure, shortened: as §1
# [23] = target: Gal(b1-3)GlcNAc(b1-6)GalNAc
# Procedure, shortened: as §1
# [24] = target: Gal(b1-3)GlcNAc(b1-6)[Gal(b1-3)]GalNAc
# Procedure, shortened: as §1
# Gal(b1-3)GlcNAc6S = target: Gal(b1-3)GlcNAc6S
# Procedure, shortened: as §1
# [25] = target: Gal(b1-3)[Fuc(a1-4)]GlcNAc
# Procedure, shortened: as §1
# [26] = target: Gal(b1-3)[Fuc(a1-4)]GlcNAc(b1-2)Man
# Procedure, shortened: as §1
# [27] = target: Gal(b1-3)[Fuc(a1-4)]GlcNAc(b1-2)Man(a1-3)[Gal(b1-3)[Fuc(a1-4)]GlcNAc(b1-2)Man(a1-6)]Man(b1-4)GlcNAc(b1-4)[Fuc(a1-6)]GlcNAc
# Procedure, shortened: as §1
# [28] = target: Gal(b1-3)[Fuc(a1-4)]GlcNAc(b1-3)Gal(b1-3)[Fuc(a1-4)]GlcNAc
# Procedure, shortened: as §1
# [29] = target: Gal(b1-3)[Fuc(a1-4)]GlcNAc(b1-3)Gal(b1-4)[Fuc(a1-3)]GlcNAc
# Procedure, shortened: as §1
# [30] = target: Gal(b1-3)[Fuc(a1-4)]GlcNAc(b1-6)GalNAc
# Procedure, shortened: as §1
# [31] = target: Gal(b1-3)[GlcNAc(b1-6)]GalNAc
# Procedure, shortened: as §1
# [32] = target: Gal(b1-3)[Neu5Ac(a2-6)]GalNAc
# Procedure, shortened: as §1
# [33] = target: Gal(b1-3)[Neu5Ac(a2-6)]GlcNAc(b1-4)Gal(b1-4)Glc
# Procedure, shortened: as §1
# [34] = target: Gal(b1-3)[Neu5Ac(b2-6)]GalNAc
# Procedure, shortened: as §1
# Gal(b1-4)Gal = target: Gal(b1-4)Gal
# Procedure, shortened: as §1
# [35] = target: Gal(b1-4)GalNAc(a1-3)[Fuc(a1-2)]Gal(b1-4)GlcNAc
# Procedure, shortened: as §1
# [36] = target: Gal(b1-4)GalNAc(b1-3)[Fuc(a1-2)]Gal(b1-4)GlcNAc
# Procedure, shortened: as §1
binder,measurement,setting,value
B1,glycan array binding signal (z-score),Gal(b1-2)Gal,-0.164
same,glycan array binding signal (z-score),Gal(b1-3)Gal,-0.197
same,glycan array binding signal (z-score),Gal(b1-3)Gal(b1-4)GlcNAc,-0.192
same,glycan array binding signal (z-score),Gal(b1-3)GalNAc,-0.233
same,glycan array binding signal (z-score),[1],-0.26
same,glycan array binding signal (z-score),[2],-0.284
same,glycan array binding signal (z-score),Gal(b1-3)GalNAc(b1-3)Gal,-0.22
same,glycan array binding signal (z-score),[3],-0.229
same,glycan array binding signal (z-score),[4],-0.061
same,glycan array binding signal (z-score),[5],-0.22
same,glycan array binding signal (z-score),Gal(b1-3)GlcNAc,-0.255
same,glycan array binding signal (z-score),[6],-0.174
same,glycan array binding signal (z-score),[7],-0.198
same,glycan array binding signal (z-score),Gal(b1-3)GlcNAc(b1-2)Man,-0.16
same,glycan array binding signal (z-score),[8],4.54
same,glycan array binding signal (z-score),[9],0.539
same,glycan array binding signal (z-score),[10],-0.125
same,glycan array binding signal (z-score),[11],-0.257
same,glycan array binding signal (z-score),[12],-0.228
same,glycan array binding signal (z-score),[13],-0.244
same,glycan array binding signal (z-score),[14],-0.228
same,glycan array binding signal (z-score),[15],0.126
same,glycan array binding signal (z-score),[16],-0.017
same,glycan array binding signal (z-score),[17],-0.118
same,glycan array binding signal (z-score),[18],-0.213
same,glycan array binding signal (z-score),[19],-0.273
same,glycan array binding signal (z-score),[20],-0.163
same,glycan array binding signal (z-score),[21],-0.251
same,glycan array binding signal (z-score),[22],-0.21
same,glycan array binding signal (z-score),[23],-0.317
same,glycan array binding signal (z-score),[24],-0.285
same,glycan array binding signal (z-score),Gal(b1-3)GlcNAc6S,-0.24
same,glycan array binding signal (z-score),[25],-0.161
same,glycan array binding signal (z-score),[26],-0.181
same,glycan array binding signal (z-score),[27],-0.124
same,glycan array binding signal (z-score),[28],-0.232
same,glycan array binding signal (z-score),[29],-0.299
same,glycan array binding signal (z-score),[30],-0.237
same,glycan array binding signal (z-score),[31],-0.208
same,glycan array binding signal (z-score),[32],-0.271
same,glycan array binding signal (z-score),[33],-0.245
same,glycan array binding signal (z-score),[34],-0.261
same,glycan array binding signal (z-score),Gal(b1-4)Gal,-0.149
same,glycan array binding signal (z-score),[35],-0.257
same,glycan array binding signal (z-score),[36],-0.215
